PubChem BioAssay AID757 (NMMLSC, 2007)
The campaign covered roughly 190,000 compounds. About 520 (0.27%) were called active. This list was built around the results that the source calls inconclusive (neither active nor inactive); the mix of calls is not that of the screen.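 Rule for the calls: active = GTP binding activity at least 20 points away from the 100% control level, either lower or higher; inconclusive = compound flagged as likely green fluorescent, judged across all proteins; inactive = the rest.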

The compounds below were run against Ras-related C3 botulinum toxin substrate 1 (Homo sapiens) (UniProt P63000) (assay: wildtype Rac1 GTP binding modulators, primary screen, biochemical, GST-Rac1 beads, flow cytometry, multiplex (AID 757)). Conditions: fluorescent GTP binding, at 10 µM, actives lie on both sides, 0 = cold GTP competed, 100 = untreated.

SMILES	GTP binding activity (% of control)
O=C(Nc1cccc(Br)c1)c1ccc(OC2CSC2)cc1	inactive: 102%
Cc1ccc(/C=N/n2c(COc3ccccc3)n[nH]c2=S)o1	inconclusive: 95%
Cn1c(=O)c2c(nc(N3CCCCCC3)n2CC(=O)c2ccc(Br)cc2)n(C)c1=O	inconclusive: 104%
Cc1ccc(NN2C(=O)C=C(c3ccccc3)C2=O)cc1	inactive: 102%
COc1ccc(C2CC(C(F)(F)F)n3nc(C(=O)Nc4c(C)n(C)n(-c5ccccc5)c4=O)c(Cl)c3N2)cc1 (configuration not stated)	inactive: 102%
CCOC(=O)Cn1c(-c2ccccn2)nc2ccccc21	inconclusive: 96%
Fc1ccc(NC(=S)N2CCc3ccccc3C2)c(F)c1	inactive: 101%
O=C(CN1C(=O)COc2ccc(S(=O)(=O)N3CCCC3)cc21)NC1CCCCCCC1	inactive: 102%
Cc1ccc(C(=O)N/N=C(/CC(=O)c2cccs2)C(F)(F)F)cc1	inconclusive: 91%
O=C(O)C1CCCCC1C(=O)NCc1ccc(Cl)c(Cl)c1 (configuration not stated)	inconclusive: 90%
Cc1cc(=O)n2nc(N3CCCC(C(=O)N4CCN(c5ccccc5)CC4)C3)sc2n1 (configuration not stated)	inconclusive: 106%
CC(=O)NC(=S)Nc1ccccc1F	inconclusive: 97%
COc1ccccc1C(=O)N(CN1CCCC1=O)c1cccc(Cl)c1	inconclusive: 109%
Cc1ccc(NC(=O)CSC2=C(C#N)C(c3ccc4c(c3)OCO4)C3=C(CCCC3=O)N2)c(C)c1 (configuration not stated)	inactive: 94%
Fc1cc(F)c2nc(Nc3nc4cc5c(cc4s3)OCO5)sc2c1	inconclusive: 89%
C/C(=N\Nc1ccc(S(N)(=O)=O)cc1[N+](=O)[O-])c1ccc2c(c1)OCO2	active: 76%
CCOC(=O)C(NC(=O)c1ccccc1)=C1C=C(C)OC(C)=C1	inconclusive: 92%
Brc1ccc(CSc2ccc3nnc(-c4cccnc4)n3n2)cc1	inconclusive: 91%
COCc1c(C)cc(C)c(/C=N/O)c1C	inactive: 101%
O=C(COC(=O)/C=C/c1ccc2c(c1)OCO2)Nc1ccc(S(=O)(=O)N2CCCC2)cc1	inconclusive: 91%
O=C(c1cccc(C(=O)N2CCN(c3ncccn3)CC2)c1)N1CCN(c2ncccn2)CC1	inconclusive: 111%
CSc1ccccc1NC(=O)NCCCl	inactive: 103%
O=C(NCCO)c1ccc2nc(-c3ccco3)c(-c3ccco3)nc2c1	inconclusive: 94%

SMILES	GTP binding activity (% of control)
COc1cccc(CN2CCN(Cc3cc(OC)c(OC)cc3[N+](=O)[O-])CC2)c1	inconclusive: 98%
Nc1ccc(C(=O)N/N=C\c2cc(N=Nc3cccc4ccccc34)ccc2O)cc1	inconclusive: 85%
Cc1cccc(NC(=O)CN(C)S(=O)(=O)c2ccccc2)n1	inconclusive: 105%
O=C(Nc1ccc(Cl)cc1)N(Cc1cccs1)Cc1cccs1	inactive: 102%
C/C(=N\NC(=O)c1cccnc1)c1cc2ccccc2o1	inconclusive: 94%
CCOc1ccccc1NC(=O)CSc1ccc2nnc(-c3cccnc3)n2n1	active: 58%
Cc1sc2ncn(CC(=O)N3CCOCC3)c(=O)c2c1-c1ccccc1	inactive: 101%
O=C(CSc1nnc(-c2ccc(F)cc2)o1)NC1CCCCC1	inconclusive: 113%
CC(=O)N1CCN(CC(=O)Nc2sccc2C#N)CC1	inconclusive: 96%
Cc1ccccc1Sc1c(C#N)c(-c2ccccc2)nn1C	inactive: 103%
Cc1ccc(SCc2ccc(C(=O)Nc3ccccc3Br)cc2)cc1	inconclusive: 100%
Cc1c(NC(=O)/C(C#N)=C/c2ccc(-c3cccc(Cl)c3)o2)c(=O)n(-c2ccccc2)n1C	inconclusive: 95%
COc1ccc2c(C)cc3nncn3c2c1	active: 79%
O=C(C1CCN(S(=O)(=O)c2cccs2)CC1)N(c1ccccn1)C1CCCCC1	inactive: 100%
COCCNC(=O)CN(c1ccc(OC)c(OC)c1)S(=O)(=O)c1ccc(C)cc1	inconclusive: 102%
COc1ccc(/C=C/C(=O)Nc2ccc3nc4n(c(=O)c3c2)CCCC4)cc1OC	inconclusive: 87%
Cc1nnc(SCC(=O)NCc2ccco2)n1-c1ccccc1	inconclusive: 104%
Cc1nc2ccc(NC(=S)N3CCC(C)CC3)cc2nc1C	inactive: 100%
COc1cccc(CNC(=O)C2CCN(S(=O)(=O)c3cccs3)CC2)c1	inconclusive: 93%
CC(=O)N[C@@H](Cc1c[nH]c2ccccc12)C(=O)OCC(=O)Nc1ccc(Cl)c(S(=O)(=O)N(C)C)c1	inconclusive: 100%
CCC(/C=C1\Sc2ccc(OC)cc2N1CC)=C\c1sc2ccc(OC)cc2[n+]1CCCS(=O)(=O)[O-]	inactive: 96%
O=C1c2cccc3cccc(c23)C(=O)N1CCN1CCN(C(=S)Nc2ccccc2)CC1	inconclusive: 101%
COC(=O)CC1C(=O)NCCN1C(=O)CSc1nnnn1-c1ccc(Cl)cc1 (configuration not stated)	inactive: 97%

SMILES	GTP binding activity (% of control)
CCCn1nnc(NC(=S)NC(=O)c2cccs2)n1	inactive: 102%
Cc1nn(C)c(Sc2ccccc2N)c1[N+](=O)[O-]	inactive: 98%
CC(C)CCN(C(=S)NC(=O)C1CCCCC1)c1c(N)n(Cc2ccccc2)c(=O)[nH]c1=O	inactive: 92%
COc1cc2c(cc1OC)-c1cc(NC3CCCCCCC3)nc(=O)n1CC2	inactive: 89%
CC(=O)Nc1ccc(Nc2ccc3c4c(cc(=O)n3C)-c3ccccc3C(=O)c24)cc1	active: 77%
O=S(=O)(c1ccc(F)cc1)n1ccc(-c2cccc(OCc3ccc(Cl)cc3Cl)c2)n1	inconclusive: 104%
O=C(O)c1ccc(N2CCCCS2(=O)=O)cc1	inactive: 98%
CC(C)CC1NC(=O)N(CC(=O)Nc2ccc3c(c2)CCC3)C1=O (configuration not stated)	inconclusive: 100%
CC(C)C(C(=O)NCC1CCCO1)N(Cc1ccco1)C(=O)CNS(=O)(=O)c1ccc(F)cc1 (configuration not stated)	inconclusive: 104%
COc1cc(C2CC(=O)Oc3c2c(=O)n(C)c2ccccc32)ccc1O (configuration not stated)	inconclusive: 96%
Cc1cccc(C(=O)Nc2cccc(-c3ccc4nncn4n3)c2)c1	inconclusive: 92%
C/C(N)=C(/C#N)C(=O)COC(=O)CCCNC(=O)c1ccc(Cl)cc1	inactive: 101%
O=C(COc1cccc(Br)c1)N/N=C1\CCSC1	inconclusive: 93%
CC(C)(C)c1nn2cnnc2n(/N=C/c2ccc(O)cc2)c1=O	inconclusive: 105%
CCCCC(=O)NCCc1ccc(OC)cc1	inconclusive: 107%
CCn1cc(Br)c(C(=O)Nc2ccc(OC)cc2)n1	inconclusive: 98%
O=C(CNCc1ccc(F)cc1)Nc1ccccc1[N+](=O)[O-]	inactive: 104%
Cc1ccc(NC(=S)Nc2ccc3cn[nH]c3c2)cc1C	inconclusive: 102%
COc1ccc(Cc2nnc(NS(=O)(=O)c3ccc(Cl)cc3)s2)cc1OC	inconclusive: 91%
CCOc1ccccc1N(CC(=O)NC1CCCCC1)S(C)(=O)=O	inconclusive: 104%
O=C1CN(C(=S)NC(=O)c2ccc(-c3ccccc3)cc2)CCN1	inactive: 101%
Cc1ccc2nc(N3C(=O)C(O)=C(C(=O)c4ccco4)C3c3cccs3)sc2c1 (configuration not stated)	inconclusive: 98%
CC(=O)NC1=NN(C(C)=O)C2(S1)C(=O)N(C(C)C)c1ccc(C)cc12 (configuration not stated)	inconclusive: 106%

SMILES	GTP binding activity (% of control)
Cc1ccc2c(c1)Oc1ccc([N+](=O)[O-])cc1C(=O)N2	inconclusive: 93%
OCCc1ccc(-c2ccc(Cl)cc2)o1	inconclusive: 105%
Cc1ccc(NC(=O)NC(=O)CSc2n[nH]c(N)n2)c(C)c1	inconclusive: 94%
O=C1C=C(NCc2ccc3c(c2)OCO3)CC(c2ccccc2)C1 (configuration not stated)	inactive: 102%
NC(=O)CN(c1ccc([N+](=O)[O-])cc1)S(=O)(=O)c1ccccc1	inactive: 100%
C=CCN1C(=NC(=O)CCCC(=O)O)SC2CS(=O)(=O)CC21 (configuration not stated)	inactive: 100%
COc1ccc(N2C(=O)C3C4C=CC(C4)C3C2=O)nn1 (configuration not stated)	inactive: 100%
CN(C(=O)COC(=O)c1cc(S(=O)(=O)N2CCOCC2)c(Cl)cc1Cl)C1CCS(=O)(=O)C1 (configuration not stated)	inactive: 97%
Cc1ccc2nc(Nc3ccccc3)c(/C=N/O)c(=O)n2c1	inconclusive: 96%
O=C(Nc1nn[nH]n1)c1cc(-c2ccc(Cl)c(Cl)c2Cl)nc2ccccc12	inconclusive: 92%
Cc1ccc(/C=N/NC(=O)CNC(=O)c2ccc(S(=O)(=O)N(C)C)cc2)o1	inactive: 112%
O=C1c2ccccc2C(=O)N1c1cccnc1	inconclusive: 91%
CC(C)(C)SCCNC(=O)c1ccc(Cl)c([N+](=O)[O-])c1	inconclusive: 101%
COc1cc(OC)cc(C(=O)Nc2ccc(S(=O)(=O)Nc3nc(C)cc(C)n3)cc2)c1	inconclusive: 96%
O=C(CN1CCN(c2ccccc2)CC1)Nc1ccccc1Sc1ccccc1	inactive: 105%
CCN1CCN(C(=S)NCC(C)C)CC1	inactive: 102%
COC(CNC(=O)c1cccnc1)OC	inconclusive: 90%
COc1cc2[nH]c(=O)c(C(=O)NCCCN3CCCCC3)c(O)c2cc1OC	inconclusive: 103%
CN(C)S(=O)(=O)c1cccc(NC(=O)c2cc3c(=O)n4ccccc4nc3s2)c1	inactive: 91%
O=C(c1cc(Br)ccc1Cl)N1CCCC1	inconclusive: 93%
CC1=Nc2nc(N3CCCCC3)c(C#N)c3c4c(nc(c23)N1)N(c1ccc(C(C)C)cc1)C(=O)C4	inactive: 97%
NC(=O)c1ccc(NC(=O)COC(=O)CCC(=O)c2ccc(Cl)cc2)cc1	inactive: 91%
COC(=O)C(C)(C)ONC(=O)Nc1ccccc1	inactive: 99%
